{"source": "paper PMC4336329", "about": "(PLoS ONE, 2015)", "note": "Among all 310,000 compounds or so, about 2,200 (0.71%) showed an effect of 50% or more. The effect is printed as a negative number. The list shows a part of the results."}
{"target": "human ether-à-go-go-related gene (hERG) potassium channel (human, UniProt Q12809)", "sequence (Q12809 whole entry, looked up)": "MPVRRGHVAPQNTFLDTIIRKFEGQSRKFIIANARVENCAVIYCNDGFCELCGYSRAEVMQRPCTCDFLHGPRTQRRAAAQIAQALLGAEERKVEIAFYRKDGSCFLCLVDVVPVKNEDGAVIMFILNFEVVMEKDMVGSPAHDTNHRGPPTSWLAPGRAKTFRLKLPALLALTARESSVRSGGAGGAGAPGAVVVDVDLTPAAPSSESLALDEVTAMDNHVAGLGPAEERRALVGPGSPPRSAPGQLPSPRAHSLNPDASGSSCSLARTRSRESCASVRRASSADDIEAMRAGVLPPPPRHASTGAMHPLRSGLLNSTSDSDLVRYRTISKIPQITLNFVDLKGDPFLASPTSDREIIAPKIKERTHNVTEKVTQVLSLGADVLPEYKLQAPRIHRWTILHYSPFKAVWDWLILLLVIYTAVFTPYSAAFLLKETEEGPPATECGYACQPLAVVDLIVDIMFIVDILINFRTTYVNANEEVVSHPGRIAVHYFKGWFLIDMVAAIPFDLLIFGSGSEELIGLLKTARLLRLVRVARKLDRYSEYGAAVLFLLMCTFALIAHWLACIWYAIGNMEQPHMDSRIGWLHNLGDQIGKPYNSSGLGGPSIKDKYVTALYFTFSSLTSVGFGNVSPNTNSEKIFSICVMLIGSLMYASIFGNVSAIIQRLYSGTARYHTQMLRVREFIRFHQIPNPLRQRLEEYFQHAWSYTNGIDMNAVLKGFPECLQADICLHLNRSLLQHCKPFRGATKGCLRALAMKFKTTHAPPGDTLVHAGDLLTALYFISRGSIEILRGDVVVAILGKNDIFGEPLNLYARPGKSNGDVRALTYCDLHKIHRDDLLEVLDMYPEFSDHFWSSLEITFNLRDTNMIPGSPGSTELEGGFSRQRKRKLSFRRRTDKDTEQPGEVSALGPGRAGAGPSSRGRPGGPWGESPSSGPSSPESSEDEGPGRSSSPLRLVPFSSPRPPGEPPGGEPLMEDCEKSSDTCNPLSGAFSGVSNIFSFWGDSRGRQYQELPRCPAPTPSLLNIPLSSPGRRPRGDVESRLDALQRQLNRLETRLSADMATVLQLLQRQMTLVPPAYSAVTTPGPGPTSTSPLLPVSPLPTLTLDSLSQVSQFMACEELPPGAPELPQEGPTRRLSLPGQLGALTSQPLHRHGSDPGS", "experiment": "primary screen, population patch clamp on CHO cells stably expressing hERG", "units": {"hERG current change (%, negative = inhibition) at 1uM": "%"}}
{"smiles": "O=C(/C=C/c1ccccc1)N1CCN(c2ccc([N+](=O)[O-])c(N3CCOCC3)c2)CC1", "hERG current change (%, negative = inhibition) at 1uM": -3.74}
{"smiles": "COC(=O)c1c(NC(=O)c2nc3nc(C)cc(C(F)F)n3n2)sc2c1CCC2", "hERG current change (%, negative = inhibition) at 1uM": 7.06}
{"smiles": "CN(Cc1c(C(=O)N/N=C/c2cccc(Cl)c2)nnn1-c1nonc1N)c1ccccc1", "hERG current change (%, negative = inhibition) at 1uM": 10.7}
{"smiles": "COc1ccc(NC(=S)N2CCc3ccccc3C2)cc1OC", "hERG current change (%, negative = inhibition) at 1uM": 7.27}
{"smiles": "CC1=C(C#N)C(Nc2ccc(C)cn2)(C(F)(F)F)C(=O)N1", "note": "(centres unmarked)", "hERG current change (%, negative = inhibition) at 1uM": -9.19}
{"smiles": "Cc1ccc2c(c1)N(CC(=O)NCC1CCCO1)C(=O)CO2", "note": "(centres unmarked)", "hERG current change (%, negative = inhibition) at 1uM": 12.3}
{"smiles": "CC1Oc2ccccc2N(CC(=O)NCCCN2CCOCC2)C1=O", "note": "(centres unmarked)", "hERG current change (%, negative = inhibition) at 1uM": 18.1}
{"smiles": "Cc1cc(=O)oc2c3c(cc(OCC(=O)NCc4ccco4)c12)OC(C)(C)CC3", "hERG current change (%, negative = inhibition) at 1uM": -1.54}
{"smiles": "CCOC(=O)C1CCN(c2ncnc3c2cnn3-c2ccc(OC)cc2)CC1", "hERG current change (%, negative = inhibition) at 1uM": 5.05}
{"smiles": "O=C(CCC(=O)N1CCOc2ccccc21)NC1CCCCCC1", "hERG current change (%, negative = inhibition) at 1uM": -2.32}
{"smiles": "CCOC(=O)C1C(=O)NC(c2ccccc2)=NC1c1ccc(O)c(OC)c1", "note": "(centres unmarked)", "hERG current change (%, negative = inhibition) at 1uM": 3.13}
{"smiles": "COc1cccc(NC(=O)CN(C)C(=O)Cn2c(=O)oc3ccccc32)c1", "hERG current change (%, negative = inhibition) at 1uM": 13.4}
{"smiles": "COc1ccc(OC)c(S(=O)(=O)N2C(C)CCCC2C)c1", "note": "(centres unmarked)", "hERG current change (%, negative = inhibition) at 1uM": 7.33}
{"smiles": "O=[N+]([O-])c1ccccc1N/N=C/c1cc2ccccc2nc1Cl", "hERG current change (%, negative = inhibition) at 1uM": 6.39}
{"smiles": "CCC(C)NC(=O)C(=O)NCC1CCCN1CC", "note": "(centres unmarked)", "hERG current change (%, negative = inhibition) at 1uM": 2.12}
{"smiles": "O=C(C1CCC(=O)N1Cc1ccc(F)cc1)N1CCC2(CC1)OCCO2", "note": "(centres unmarked)", "hERG current change (%, negative = inhibition) at 1uM": 16.5}
{"smiles": "Cc1ccc2cc(C#N)c(N3CCCC3)nc2c1C", "hERG current change (%, negative = inhibition) at 1uM": 7.14}
{"smiles": "Cc1ccc(C)c(NC(=O)c2ncn[nH]2)c1", "hERG current change (%, negative = inhibition) at 1uM": 9.54}
{"smiles": "OCCNCCc1c[nH]c2ccc(OCc3ccccc3)cc12", "hERG current change (%, negative = inhibition) at 1uM": 4.99}
{"smiles": "C=CCn1c(Oc2ccc(C(=O)OC)cc2)nc2c1c(=O)n(C)c(=O)n2C", "hERG current change (%, negative = inhibition) at 1uM": 4.62}
{"smiles": "Cc1ccc(-c2cc(C(=O)Nc3cccnc3)c3ccccc3n2)o1", "hERG current change (%, negative = inhibition) at 1uM": 12}
{"smiles": "COc1ccc(-c2[nH]ncc2/C=N\\NC(=O)c2ccc(Br)o2)cc1OC", "hERG current change (%, negative = inhibition) at 1uM": 6.1}
{"smiles": "CCS(=O)(=O)N1CCCC(C(=O)NC2CCCCC2)C1", "note": "(centres unmarked)", "hERG current change (%, negative = inhibition) at 1uM": 19.7}
{"smiles": "Cc1c(C(=O)N2CCCc3ccccc32)oc2ccccc12", "hERG current change (%, negative = inhibition) at 1uM": 13.1}
{"smiles": "CC12CCC(C(=O)N3CCC(Cc4ccccc4)CC3)(C(=O)C1=O)C2(C)C", "note": "(centres unmarked)", "hERG current change (%, negative = inhibition) at 1uM": 10.1}
{"smiles": "Cc1ccnc2ccc(-c3nc4ccccc4o3)cc12", "hERG current change (%, negative = inhibition) at 1uM": 5.81}
